Source: the supplement of paper PMC4967469

What was measured:
Assay in all cases: Viability of human cancer cell lines after 72 h of drug (GDSC screen)
AG-014699 = compound: CNCc1ccc(-c2[nH]c3cc(F)cc4c3c2CCNC4=O)cc1 [AG-014699]; conditions: top dose 5 µM; top dose inferred
Procedure: (§1)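 Human cancer cell lines in 384-well plates, medium with 10% serum, drug for 72 h over a 256-fold dose range (nine 2-fold or five 4-fold steps up to the top dose). Adherent lines were fixed and stained with the nucleic acid dye Syto60, suspension lines read with resazurin; signal relative to control wells, capped at 0 and 100%. One two-parameter sigmoid per drug and line, fitted in a mixed model over all curves with the slope shared within a line.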

Gefitinib = compound: COc1cc2ncnc(Nc3ccc(F)c(Cl)c3)c2cc1OCCCN1CCOCC1 [Gefitinib]; conditions: top dose 0.5 µM
Procedure: as §1

EHT 1864 = compound: O=c1cc(CN2CCOCC2)occ1OCCCCCSc1ccnc2cc(C(F)(F)F)ccc12 [EHT 1864]; conditions: top dose 10 µM; top dose inferred
Procedure: as §1

NU-7441 = compound: O=c1cc(N2CCOCC2)oc2c(-c3cccc4c3sc3ccccc34)cccc12 [NU-7441]; conditions: top dose 2 µM; top dose inferred
Procedure: as §1

QL-XI-92 = compound: C=CC(=O)Nc1cc(NC(=O)c2ccc(C)c(NC(=O)c3ccno3)c2)cc(C(F)(F)F)c1 [QL-XI-92]; conditions: top dose 10.24 µM; top dose inferred
Procedure: as §1

XL-184 = compound: COc1cc2nccc(Oc3ccc(NC(=O)C4(C(=O)Nc5ccc(F)cc5)CC4)cc3)c2cc1OC [XL-184]; conditions: top dose 5.12 µM; top dose inferred
Procedure: as §1

WHI-P97 = compound: COc1cc2ncnc(Nc3cc(Br)c(O)c(Br)c3)c2cc1OC [WHI-P97]; conditions: top dose 10.24 µM; top dose inferred
Procedure: as §1

Phenformin = compound: N=C(N)NC(=N)NCCc1ccccc1 [Phenformin]; conditions: top dose 4000 µM; top dose inferred
Procedure: as §1

Row | Cell Line | AUC (AG-014699) | IC50 (AG-014699) | AUC (Gefitinib) | IC50 (Gefitinib) | AUC (EHT 1864) | IC50 (EHT 1864) | AUC (NU-7441) | IC50 (NU-7441) | AUC (QL-XI-92) | IC50 (QL-XI-92) | AUC (XL-184) | IC50 (XL-184) | AUC (WHI-P97) | IC50 (WHI-P97) | AUC (Phenformin) | IC50 (Phenformin)
1 | BALL-1 (B-cell leukaemia, suspension) | 0.997 | > 5 µM | 0.988 | > 0.5 µM | 0.971 | > 10 µM | 0.995 | > 2 µM |  |  |  |  |  |  |  | 
2 | BT-549 (breast, adherent) | 0.951 | > 5 µM | 0.979 | > 0.5 µM | 0.924 | > 10 µM | 0.971 | > 2 µM |  |  |  |  |  |  |  | 
3 | CADO-ES1 (Ewing sarcoma, suspension) | 0.979 | > 5 µM | 0.967 | > 0.5 µM | 0.876 | > 10 µM | 0.976 | > 2 µM | 0.905 | > 10.2 µM | 0.919 | > 5.12 µM | 0.952 | > 10.2 µM | 0.986 | > 4000 µM
4 | CL-34 (large intestine, adherent) | 0.987 | > 5 µM | 0.987 | > 0.5 µM | 0.978 | > 10 µM | 0.986 | > 2 µM |  |  |  |  |  |  |  | 
5 | CL-40 (large intestine, adherent) | 0.967 | > 5 µM | 0.975 | > 0.5 µM | 0.939 | > 10 µM | 0.974 | > 2 µM |  |  |  |  |  |  |  | 
6 | CML-T1 (chronic myeloid leukaemia, suspension) | 0.985 | > 5 µM | 0.987 | > 0.5 µM | 0.975 | > 10 µM | 0.981 | > 2 µM |  |  |  |  |  |  |  | 
7 | CRO-AP2 (B-cell lymphoma, suspension) | 0.965 | > 5 µM | 0.99 | > 0.5 µM | 0.956 | > 10 µM | 0.932 | > 2 µM |  |  |  |  |  |  |  | 
8 | DIFI (large intestine, adherent) | 0.987 | > 5 µM | 0.532 | 0.0383 µM | 0.971 | > 10 µM | 0.986 | > 2 µM |  |  |  |  |  |  |  | 
9 | EMC-BAC-1 (lung adenocarcinoma, adherent) | 0.979 | > 5 µM | 0.796 | 0.271 µM |  |  | 0.942 | > 2 µM | 0.886 | > 10.2 µM | 0.911 | > 5.12 µM | 0.757 | 3.97 µM | 0.973 | > 4000 µM
10 | ESO51 (oesophagus, semi-adherent) |  |  | 0.918 | > 0.5 µM | 0.972 | > 10 µM | 0.936 | > 2 µM | 0.955 | > 10.2 µM | 0.313 | 0.0764 µM | 0.97 | > 10.2 µM | 0.976 | > 4000 µM
11 | EW-22 (Ewing sarcoma, adherent) | 0.879 | 4.75 µM | 0.985 | > 0.5 µM | 0.891 | > 10 µM | 0.959 | > 2 µM |  |  |  |  |  |  |  | 
12 | HCC-366 (non-small cell lung carcinoma, adherent) | 0.988 | > 5 µM | 0.968 | > 0.5 µM | 0.977 | > 10 µM | 0.97 | > 2 µM |  |  |  |  |  |  |  | 
13 | JEKO-1 (B-cell lymphoma, suspension) | 0.978 | > 5 µM | 0.97 | > 0.5 µM | 0.934 | > 10 µM | 0.751 | 0.634 µM |  |  |  |  |  |  |  | 
14 | JHOS-4 (ovary, adherent) | 0.979 | > 5 µM | 0.969 | > 0.5 µM | 0.948 | > 10 µM | 0.976 | > 2 µM |  |  |  |  |  |  |  | 
15 | Jurkat (T-cell leukaemia, suspension) | 0.993 | > 5 µM | 0.991 | > 0.5 µM | 0.891 | 7.97 µM | 0.993 | > 2 µM |  |  |  |  |  |  |  | 
16 | KARPAS-1106P (B-cell lymphoma, suspension) | 0.965 | > 5 µM | 0.993 | > 0.5 µM | 0.993 | > 10 µM | 0.939 | > 2 µM |  |  |  |  |  |  |  | 
17 | KATOIII (stomach, semi-adherent) | 0.936 | > 5 µM | 0.981 | > 0.5 µM | 0.984 | > 10 µM | 0.972 | > 2 µM |  |  |  |  |  |  |  | 
18 | KNS-62 (lung squamous cell carcinoma, adherent) | 0.963 | > 5 µM | 0.927 | > 0.5 µM | 0.96 | > 10 µM | 0.932 | > 2 µM |  |  |  |  |  |  |  | 
19 | MEL-HO (melanoma, adherent) | 0.986 | > 5 µM | 0.977 | > 0.5 µM | 0.986 | > 10 µM | 0.908 | > 2 µM |  |  |  |  |  |  |  | 
20 | MHH-CALL-2 (B-cell leukaemia, suspension) | 0.995 | > 5 µM | 0.986 | > 0.5 µM | 0.979 | > 10 µM | 0.988 | > 2 µM |  |  |  |  |  |  |  | 
21 | MKN7 (stomach, adherent) | 0.936 | > 5 µM | 0.935 | > 0.5 µM | 0.971 | > 10 µM | 0.946 | > 2 µM |  |  |  |  |  |  |  | 
22 | MM1S (myeloma, suspension) | 0.988 | > 5 µM | 0.973 | > 0.5 µM | 0.885 | > 10 µM | 0.948 | > 2 µM |  |  |  |  |  |  |  | 
23 | MOLM-16 (acute myeloid leukaemia, suspension) | 0.973 | > 5 µM | 0.963 | > 0.5 µM | 0.848 | 6.12 µM | 0.885 | 1.73 µM |  |  |  |  |  |  |  | 
24 | MOLT-16 (T-cell lymphoblastic leukaemia, suspension) | 0.911 | 4.58 µM | 0.97 | > 0.5 µM | 0.799 | 3.72 µM | 0.991 | > 2 µM |  |  |  |  |  |  |  | 
25 | NCC010 (kidney, adherent) | 0.982 | > 5 µM | 0.983 | > 0.5 µM | 0.966 | > 10 µM | 0.969 | > 2 µM |  |  |  |  |  |  |  | 

Lines with a small IC50 respond at low doses; fits outside the tested doses are given as limits. AUC sums up the same curve from the lowest dose to the 256-fold higher top dose; values near 1 show little effect. For some of these results: Where the top dose is marked as inferred, it comes from the curve model; the source does not state it.
